# Reference: PubChem BioAssay AID1347055 (National Center for Advancing Translational Sciences (NCATS), 2019)
# In all, about 54,000 compounds went through this assay and about 120 (0.22%) were called active. Inconclusive means that the source gave no clear call. Such entries were picked first, then a sample of the others. The call rests on the fitted dose curve; in most records, active means well fitted inhibition curve with a large enough effect; inconclusive means small, poorly fitted or top-dose-only effect, or effect the other way; inactive means flat fitted curve, though single readings scatter. Potencies of inconclusive entries are left out as doubtful fits.
# Target: Fumarate hydratase, mitochondrial (Homo sapiens) (UniProt P07954)
# Assay: Identification of activators of human fumarate hydratase by quantitative high-throughput screening; further: the screen sought activators but most active calls are inhibition curves; nearly all actives have a fitted effect of over 45% in size
# Conditions: FH coupled MDH/diaphorase resazurin fluorescence, 15 min; activity change, negative = inhibition: at 79.9 µM (top of the series)
# On the % scale 0 is the no-effect control and ±100 the full control effect; potency means the concentration at half of the fitted maximal effect; tags describe the fitted curve by direction and shape.
# Sequence of UniProt P07954 (P07954 whole entry, looked up): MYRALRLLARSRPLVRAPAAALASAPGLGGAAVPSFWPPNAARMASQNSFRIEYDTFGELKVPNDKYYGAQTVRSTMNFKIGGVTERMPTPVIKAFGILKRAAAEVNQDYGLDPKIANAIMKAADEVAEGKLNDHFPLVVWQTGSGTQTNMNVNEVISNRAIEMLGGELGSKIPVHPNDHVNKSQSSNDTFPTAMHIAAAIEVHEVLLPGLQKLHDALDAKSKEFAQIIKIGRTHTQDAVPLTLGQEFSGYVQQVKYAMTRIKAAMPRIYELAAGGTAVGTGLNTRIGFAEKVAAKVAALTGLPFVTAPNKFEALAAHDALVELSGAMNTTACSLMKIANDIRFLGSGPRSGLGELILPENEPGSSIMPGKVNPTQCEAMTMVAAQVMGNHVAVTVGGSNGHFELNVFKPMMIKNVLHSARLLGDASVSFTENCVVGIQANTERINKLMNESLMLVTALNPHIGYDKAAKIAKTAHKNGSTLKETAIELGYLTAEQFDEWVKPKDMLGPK
SMILES,Potency,"activity change, negative = inhibition"
COc1ccc(S(=O)(=O)Nc2ccc3oc4c(c3c2)CCCC4)cc1,"inconclusive [inhibitor, partial curve, poor fit]",
CCn1cc(C(=O)NCCc2ccc(OC)c(OC)c2)c(=O)c2cc(S(=O)(=O)N3CCCCCC3)ccc21,"inconclusive [inhibitor, single point]",
O=C1N(Cc2ccccc2Cl)c2ccccc2C1(O)c1c[nH]c2ccccc12 (stereo unspecified),"inconclusive [inhibitor, partial curve]",
CCOC(=O)c1ccc(NC(=O)CSc2nc3cc4ccccc4cc3[nH]2)cc1,,inactive: -14.1%
COc1ccc(CCNc2ncnc3c2cnn3-c2cc(Cl)ccc2C)cc1,,inactive: -19.8%
CC(C)(C)C1CCc2oc3ccc(NS(=O)(=O)c4ccc(C(=O)O)cc4)cc3c2C1 (stereo unspecified),"inconclusive [inhibitor, partial curve, poor fit]",
Cc1ccc(NC(=O)c2cc(S(=O)(=O)NCCc3ccc(Cl)cc3)ccc2F)cc1,"inconclusive [inhibitor, partial curve, poor fit]",
CN1CCc2c(sc3c2C(=O)NC(c2ccc(C(C)(C)C)cc2)N3)C1 (stereo unspecified),,inactive: -2.97%
O=C(CSC1=Nc2ccccc2N=C(c2ccc(F)cc2)C1)Nc1ccccc1,"inconclusive [inhibitor, single point]",
COc1ccc(NCc2cccn2-c2nnc(N3CCCCC3)s2)cc1OC,"inconclusive [inhibitor, partial curve, poor fit]",
COc1ccccc1CNC(=O)c1cn(C)c2ccc(S(=O)(=O)N(C)C3CCCCC3)cc2c1=O,"inconclusive [inhibitor, partial curve, poor fit]",
Cc1ccc(NC(=O)CSc2cn(CC(=O)N3CCCC3)c3ccccc23)cc1Cl,"inconclusive [inhibitor, partial curve]",
Cc1ccc(Cl)cc1-n1ncc2c(N3CCN(Cc4ccccc4)CC3)ncnc21,"inconclusive [inhibitor, partial curve, poor fit]",
COc1ccc2nc(N(Cc3cccnc3)C(=O)Cc3ccccc3)sc2c1,,inconclusive: -33.3% [inhibitor]
Cc1cc(C)cc(Oc2nc3c(C)cccn3c(=O)c2/C=C(\C#N)c2nc3ccccc3s2)c1,"inconclusive [inhibitor, partial curve, poor fit]",
CCCCCCCCCCC(O)C1C=CC2C(=O)N(c3ccccc3)C(=O)C2N1Nc1ccc([N+](=O)[O-])cc1 (stereo unspecified),"inconclusive [inhibitor, single point]",
Cc1cc(NC(=O)CN2C(=O)c3cccnc3Sc3ccccc32)ccc1Br,"inconclusive [inhibitor, partial curve, poor fit]",
COc1ccc(Nc2oc(-c3ccc(COc4ccccc4C)o3)nc2C#N)cc1,"inconclusive [inhibitor, single point]",
O=C(Nc1cccc(C(F)(F)F)c1)c1cnn(-c2cccc(F)c2)c1C1CCNCC1,"inconclusive [inhibitor, partial curve, poor fit]",
CC(C)(C)c1ccc(C(=O)NCCc2csc(-c3ccc(Cl)cc3)n2)cc1,"inconclusive [inhibitor, partial curve, poor fit]",
COc1ccc(CCNC(=O)c2nc(-c3ccc(Cl)cc3)n3c2CCCCC3)c(OC)c1,"inconclusive [inhibitor, partial curve]",

SMILES,Potency,"activity change, negative = inhibition"
C/C=C/C=C/C(O)=C1\C(=O)[C@]2(C)C3C(C(=O)CC/C=C/C)=C(O)C4(C)C1[C@]1(C)O[C@@]4(O)[C@@]3(C)O[C@@]12O,,inactive: -0.252% [at 53.3 µM]
Cc1oc(-c2ccc(C(=O)NCc3ccccc3)cc2)nc1CN1CCc2ccccc21,"inconclusive [inhibitor, single point]",
CSc1cccc(NC(=O)Nc2ccccc2OCc2cc(=O)n3cc(C)ccc3n2)c1,,inactive: -15.1%
CCCCn1cnc2cc(NCc3ccccc3Cl)ccc21,"inconclusive [inhibitor, partial curve]",
Cc1cc(C)c2c(CC(=O)Nc3ccc(S(=O)(=O)Nc4nc(C)cc(C)n4)cc3)coc2c1,"inconclusive [inhibitor, single point]",
Cc1ccc2c(CNCc3ccc(C)o3)c(C(=O)O)n(Cc3ccccc3C)c2c1,"inconclusive [inhibitor, partial curve]",
Cc1ccc(C)c(N2CCN(S(=O)(=O)c3ccc4c(c3)C(C(C)C)C(=O)N4)CC2)c1 (stereo unspecified),"inconclusive [inhibitor, partial curve]",
N=C1N=C(N)c2cc3ccccc3cc21,"inconclusive [inhibitor, partial curve, poor fit]",
Nc1ccc(-c2ccc3ccccc3n2)cc1,"inconclusive [inhibitor, single point]",
CC1=C(C(=O)OC2CCCC2)C(c2c(Cl)cccc2Cl)CC(=O)N1 (stereo unspecified),,inactive: -17.7%
CC(C)(C)c1ccc(OCc2nc3ccccc3n2CCOc2ccccc2)cc1,"inconclusive [inhibitor, partial curve, poor fit]",
COCCNC(=O)C1CCN(C(=O)c2cc3sccc3n2Cc2ccc(Cl)cc2)CC1,,inactive: -8.62%
CCOC(=O)Cc1ccc(NC(=O)N2CCSc3ccccc32)cc1,"inconclusive [inhibitor, partial curve, poor fit]",
CSc1ncc(C(=O)Nc2ccccc2C(F)(F)F)c(-c2ccccc2)n1,,inactive: -14%
CCC(C(=O)N1CCN(c2ccccc2F)CC1)n1nc(C)c2sc3ccccc3c2c1=O (stereo unspecified),"inconclusive [inhibitor, single point]",
Cc1ccccc1OCc1ccc(-c2nc(C#N)c(N3CCN(C)CC3)o2)o1,"inconclusive [inhibitor, full curve, poor fit]",
Cc1ccc(Cl)cc1-n1ncc2c(NCCCn3ccnc3)ncnc21,"inconclusive [activator, partial curve, poor fit]",
O=c1cc(-c2ccc(F)cc2)nc(SCc2nc(-c3cccc(Cl)c3)no2)[nH]1,"inconclusive [inhibitor, full curve]",
CC1CN(C(=O)N2CCC(C(=O)NCCC3=CCCCC3)CC2)c2cc(Cl)ccc2O1 (stereo unspecified),,inactive: 2.83%
COc1ccc(-c2cn3nc(N4CCC(C(=O)Nc5cccc(OC)c5)CC4)sc3n2)cc1,,inactive: 5.4%
CCCCOc1ccc(C(=O)NCCc2sc(-c3cccc(F)c3)nc2C)cc1,"inconclusive [inhibitor, partial curve, poor fit]",

SMILES,Potency,"activity change, negative = inhibition"
CCOc1ccccc1NC(=O)C(C)Sc1nc(-c2ccccc2)c(C#N)c(=O)[nH]1 (stereo unspecified),"inconclusive [inhibitor, single point]",
COc1ccc(-c2nnc(SCC(=O)Nc3ccc(C(C)=O)cc3)nc2-c2ccc(OC)cc2)cc1,"inconclusive [inhibitor, partial curve, poor fit]",
N#Cc1ccc(N2N=C3c4ccc(C(=O)O)cc4CC[C@@H]3[C@@H]2C2CCCC2)cc1Cl,"inconclusive [inhibitor, single point]",
COc1ccc(OC)c(S(=O)(=O)Nc2cc3c(C(C)=O)c(C)oc3c3ccccc23)c1,"inconclusive [inhibitor, single point]",
CN(C)c1cc2c(Nc3ccc4c(cnn4Cc4ccccc4)c3)ncnc2cn1,"inconclusive [inhibitor, partial curve, poor fit]",
Cc1cc(C)cc(NC(=O)CN(C)S(=O)(=O)c2ccc3[nH]c4c(c3c2)CCCC4)c1,"inconclusive [inhibitor, partial curve, poor fit]",
CCOc1cccc(CNc2ccc(O)cc2)c1OCc1ccccc1Cl,"inconclusive [inhibitor, partial curve]",
N#C/C(=C\c1ccc(-c2ccc(F)cc2F)o1)c1nc2ccccc2[nH]1,,inactive: -1.37%
Cc1n[nH]c(C)c1S(=O)(=O)N(CC(=O)NCc1ccccc1Cl)c1ccc(C(C)C)cc1,"inconclusive [inhibitor, single point]",
O=C1CC(c2nc(-c3cccc(Cl)c3)no2)CN1c1ccc2c(c1)OCCO2 (stereo unspecified),"inconclusive [inhibitor, partial curve, poor fit]",
O=C(NCCc1csc(-c2cccc(F)c2)n1)c1ccc(Br)o1,,inactive: -11.5%
O=C1NC(=O)/C(=C\c2ccc3c(c2)OC(F)(F)O3)S1,"inconclusive [inhibitor, partial curve]",
O=C(NC1CCCCC1)c1c[nH]c2ccc(S(=O)(=O)Nc3ccccc3F)cc2c1=O,"inconclusive [inhibitor, partial curve]",
Cc1cc(C)cc(NC(=O)N2CCN3CCCCC3C2)c1 (stereo unspecified),,inactive: 0.83%
CCn1cc2nc(SCc3ccc(C)cc3)n(CCc3ccccc3)c(=O)c2n1,"inconclusive [inhibitor, single point]",
COc1cc2ccccc2cc1C(=O)Nc1cc(-c2nc3ccccc3o2)ccc1C,,inactive: -14%
O=C(CC1N=C2c3ccccc3N=C(SCC(=O)Nc3ccc(F)cc3)N2C1=O)NCc1ccc2c(c1)OCO2 (stereo unspecified),"inconclusive [inhibitor, full curve, poor fit]",
C/C1=C\CC(C)(C)/C=C/C/C(C(=O)O)=C/CC1,,inactive: -17.8%
Cc1ccc(NC(=O)[C@@H](c2ccccc2)N2Cc3ccccc3C2=O)cc1F,"inconclusive [inhibitor, partial curve, poor fit]",
